Here are results for 2 substances from patent publication US9238810B2, “Polypeptide” (AFFIBODY AB, priority 2008, dated 2016).

As usually defined, the Kd is the free concentration of one partner at which half of the binding sites on the other are occupied at equilibrium, for simple one-to-one binding.

For series [1], the target named is T1, palivizumab (human monoclonal IgG, without VH3 domain) (Homo sapiens, UniProt P01857).
T1 construct: purchased Apoteket article no; 549170
Description: Biacore surface plasmon resonance kinetic analysis on immobilized palivizumab. The class given is binding. The note with it: for ka / kd: 25 nM and 100 nM injections, 1:1 binding model; for Kd: estimated, 1:1 Langmuir binding model.

Series [2] is described as follows: Circular dichroism analysis with variable temperature measurement. The class given is physicochemical. The note with it: CD 220 nm during heating to 90° C.; 0.5 mg/ml in PBS. In general terms: CD spectra are sensitive to the conformation of chiral molecules.
A short description of series [3]: Solubility analysis of lyophilized protein in PBS. The class given is physicochemical. The note with it: for Expected concentration of dissolved molecules: PBS added to lyophilized protein, based on the amount of protein in each vial; for Appearance of solution after raising pH: pH raised to approximately 10 with 50% NaOH.
Series [4] is described as follows: Characteristics of purified proteins (isoelectric point). The series is classed as physicochemical.

Turning to “Z02726: IgG Fc-binding Z variant polypeptide, clone derived from selection round 5 (VDAKFWKEQQHAFYEILHLPNLTEDQRQAFIASLRKDPSQSARLLAGAKKLDDAQAPK; IgG Fc-binding polypeptide) [Protein Z02726]”, in series [1], the ka amounted to 2.6e+06 M⁻¹ s⁻¹, the kd was 0.045 s⁻¹ and the dissociation constant (Kd) is 18 nM. Besides, in series [2], the Tm amounted to 62 °C. In series [3], the “Expected concentration of dissolved molecules” value stood at 30 mg/mL and the “Appearance of solution after raising pH” value was “clear solution”. Besides, the Isoelectric point in series [4] is 7.7.
Regarding “Z02742: IgG Fc-binding Z variant polypeptide, clone derived from selection round 5 (VDAKFWKEQQHAFYEILHLPNLTEGQKHAFIRALRGDPSQSARLLARAKKLDDAQAPK; IgG Fc-binding polypeptide) [Protein Z02742]”, in series [1], the ka worked out at 9.6e+06 M⁻¹ s⁻¹, the kd came out at 0.043 s⁻¹ and the Kd was 5 nM. Further, the Tm in series [2] stood at 63 °C. Moreover, in series [3], the “Expected concentration of dissolved molecules” value amounted to 30 mg/mL and the “Appearance of solution after raising pH” value was “clear solution”. The substance further yielded an Isoelectric point in series [4] of 10.3.
